{"source": "PubChem BioAssay AID504845", "about": "(National Center for Advancing Translational Sciences (NCATS), 2011)", "note": "Several values for one entry are separate records, joined by “and”; a condition that tells them apart may be missing. Identical values can stand only once. The whole screen tested about 390,000 compounds, of which about 150 (0.038%) were called active. Inconclusive results, whose numbers are uncertain, are shown with a selection of clear calls. Calls come from the whole dose curve; as a rule, active = well fitted inhibition curve with a large enough effect; inconclusive = small, poorly fitted or top-dose-only effect; inactive = no such curve, though single readings can be large or run the other way. Where the call is inconclusive, the potency comes from a doubtful curve fit. Potency is the fitted concentration of half-maximal effect; tags give direction and shape of the fitted curve."}
{"target": "Regulator of G-protein signaling 4 (Homo sapiens) (UniProt P49798)", "sequence (P49798 whole entry, looked up)": "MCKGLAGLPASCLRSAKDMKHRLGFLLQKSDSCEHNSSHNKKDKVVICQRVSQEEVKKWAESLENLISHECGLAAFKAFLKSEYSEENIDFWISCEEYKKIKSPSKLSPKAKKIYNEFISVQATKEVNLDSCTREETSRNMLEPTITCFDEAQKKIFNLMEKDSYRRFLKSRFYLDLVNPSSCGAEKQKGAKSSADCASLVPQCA", "assay": "Inhibitors of Regulator of G Protein Signaling (RGS) 4: qHTS; note: nearly all actives have a fitted effect of over 75% in size", "conditions": "Transcreener GDP fluorescence polarization, RGS4-accelerated GTP hydrolysis; series mostly up to 114 µM", "summary_of_the_method": "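MLSMR compounds (23 nl, pin-transferred) preincubated 10 min at room temperature with a 500nM (2x) first reagent, then RGS4 at 900nM (2x) plus Transcreener GDP mix added; fluorescence polarization (620/688 nm) read before and after 90 min at 30 °C.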"}
{"smiles": "Cc1ccc2nc(N3CCN(Cc4nnnn4C4CCCC4)CC3)c(C#N)cc2c1", "Potency": "inconclusive: 100 µM [inhibitor, partial curve, poor fit]"}
{"smiles": "O=C(CC1(O)C(=O)Nc2cc(Cl)cc(Cl)c21)c1ccccc1O", "note": "(stereo not drawn)", "Potency": "inactive"}
{"smiles": "c1coc(-c2nc3ccccc3nc2-c2ccco2)c1", "Potency": "inconclusive: 50.1 µM [inhibitor, partial curve, poor fit]"}
{"smiles": "CCN(CC)CCn1c2ccccc2c(=O)c2c(O)ccc(O)c21", "Potency": "inconclusive: 79.4 µM [inhibitor, partial curve, poor fit]"}
{"smiles": "Nc1c(C(=O)N2CCOCC2)sc2nc(N3CCOCC3)c3c(c12)CCCC3", "Potency": "inconclusive: 100 µM [inhibitor, partial curve, poor fit]"}
{"smiles": "COc1ccc(CCNc2nc(-c3ccc(F)cc3)c(CC(=O)O)s2)cc1OC", "Potency": "inconclusive: 44.7 µM [inhibitor, partial curve, poor fit]"}
{"smiles": "CC(C)CC(=O)Nc1cccc(-c2cn3ccsc3n2)c1", "Potency": "inconclusive: 89.1 µM [inhibitor, single point]"}
{"smiles": "O=C(NC(NNc1ccc([N+](=O)[O-])cc1)(C(F)(F)F)C(F)(F)F)c1ccc(F)cc1", "Potency": "inconclusive: 56.2 µM [inhibitor, partial curve, poor fit]"}
{"smiles": "OCCN1CCN(CC/C=C2/c3ccccc3Sc3ccc(C(F)(F)F)cc32)CC1", "Potency": "inconclusive: 26.7 µM [inhibitor, partial curve, poor fit] and inconclusive: 1.19 µM [inhibitor, partial curve, poor fit]"}
{"smiles": "O=C(O)CCCC(=O)Nc1cccc(C(=O)Nc2ccccc2C(=O)O)c1", "Potency": "inconclusive: 70.8 µM [inhibitor, single point]"}
{"smiles": "Cc1cc(C)c(S(=O)(=O)N2CCCCC2)cc1N(C)S(=O)(=O)c1ccc(Cl)cc1", "Potency": "inactive"}
{"smiles": "O=C(O)c1cc(-c2ccco2)nn1-c1ccc(Cl)cc1", "Potency": "inconclusive: 35.5 µM [inhibitor, full curve, poor fit]"}
{"smiles": "O=C(NC1=NCCS1)c1ccc(Br)s1", "Potency": "inactive"}
{"smiles": "CCOC(=O)c1sc(=S)n(-c2cccc(OC)c2)c1N", "Potency": "inconclusive: 79.4 µM [inhibitor, partial curve, poor fit]"}
{"smiles": "COc1ccc(C2(CNC(=O)c3cccc([N+](=O)[O-])c3)CCOCC2)cc1OC", "Potency": "inconclusive: 50.1 µM [inhibitor, partial curve, poor fit]"}
{"smiles": "O=c1cc(CCl)nc(Cc2c(Cl)cccc2Cl)[nH]1", "Potency": "inactive"}
{"smiles": "CC(=O)Nc1ccc2nc3c(=O)[nH]c(=O)[nH]c3nc2c1", "Potency": "inconclusive: 28.2 µM [inhibitor, full curve, poor fit]"}
{"smiles": "Cn1c2ccccc2c(=O)c2ccc(C#Cc3ccccn3)cc21", "Potency": "inconclusive: 31.6 µM [inhibitor, full curve, poor fit]"}
{"smiles": "O=C(Nc1ccc(F)c(Cl)c1)Nc1ccc(Cl)cn1", "Potency": "inconclusive: 31.6 µM [inhibitor, full curve, poor fit]"}
{"smiles": "COc1ccc(Nc2cc(C(=O)NCCCN3CCN(c4ccc(OC)cc4)CC3)c3ccccc3n2)cc1", "Potency": "inactive"}
{"smiles": "COc1cccc(CCNC(=O)c2cccc(NC(=O)C3=C(C)OCCS3)c2)c1", "Potency": "inconclusive: 50.1 µM [inhibitor, partial curve, poor fit]"}
{"smiles": "S=c1nc(-c2ccccc2Cl)[nH][nH]1", "Potency": "inconclusive: 79.4 µM [inhibitor, partial curve, poor fit]"}
{"smiles": "Cc1ccc(S(=O)(=O)c2ccc([N+](=O)[O-])o2)cc1", "Potency": "inconclusive: 50.1 µM [inhibitor, partial curve, poor fit]"}
{"smiles": "Cc1cc(C)c2[nH]c(=O)c(C(c3nnnn3C(C)(C)C)N3CCN(C(=O)c4ccco4)CC3)cc2c1", "note": "(stereo not drawn)", "Potency": "inconclusive: 20 µM [inhibitor, full curve, poor fit]"}
{"smiles": "CCCc1nc2c(=O)n(C)c(=O)nc-2n(C)n1", "Potency": "inactive"}
{"smiles": "Cc1cccc(N=Nc2cn[nH]c2-c2ccco2)c1", "Potency": "inconclusive: 39.8 µM [inhibitor, partial curve, poor fit]"}
{"smiles": "CCN(CC)C(=O)CSc1nnc(CNc2ccc(F)cc2)o1", "Potency": "inactive"}
{"smiles": "COc1ccc(C(NC(=O)C(C)C)c2ccc3cccnc3c2O)cc1", "note": "(stereo not drawn)", "Potency": "inactive"}
{"smiles": "COc1ccc(CN2CCN(Cc3ccc(C)cc3)CC2)c(OC)c1", "Potency": "inactive"}
{"smiles": "CS(=O)(=O)Nc1cccc(-c2cn3c(n2)SCC3)c1", "Potency": "inconclusive: 17.8 µM [inhibitor, full curve, poor fit]"}
{"smiles": "CC1CCN(C(=S)Nc2ccc3nc4n(c(=O)c3c2)CCCCC4)CC1", "Potency": "inconclusive: 70.8 µM [inhibitor, partial curve, poor fit]"}
{"smiles": "NC(=S)N=Nc1c(O)n(C2OC(=O)c3ccccc32)c2ccccc12", "note": "(stereo not drawn)", "Potency": "inconclusive: 70.8 µM [inhibitor, partial curve, poor fit]"}
{"smiles": "CN(CCO)c1cc(N2CCC3(CC2)OCCO3)c2nonc2c1[N+](=O)[O-]", "Potency": "inactive"}
{"smiles": "O=C(NC1CC1)c1cc2cc3ccccc3nc2s1", "Potency": "inactive"}
{"smiles": "CCOC(=O)c1c(NC(=O)c2ccccc2Cl)sc2c1CCc1ccccc1-2", "Potency": "inconclusive: 17.8 µM [inhibitor, full curve, poor fit]"}
{"smiles": "COc1ccc(-c2n[nH]c3c2C(c2ccc(Cl)cc2Cl)NC3=O)cc1", "note": "(stereo not drawn)", "Potency": "inactive"}
{"smiles": "Cc1[nH]c2ccccc2c1C(=O)CSc1ccc(Cl)cc1", "Potency": "inconclusive: 22.4 µM [inhibitor, full curve, poor fit]"}
{"smiles": "CCCCNc1c(-c2ccc(SC3CCCCC3)cc2)nc2ccccn12", "Potency": "inactive"}
{"smiles": "CC(C)(C)c1ccc(C(=O)CCC(=O)NCc2ccccc2)cc1", "Potency": "inconclusive: 89.1 µM [inhibitor, single point]"}
{"smiles": "O=S(=O)(O)c1cc(O)c2c(O)c(N=Nc3cc(Cl)ccc3O)c(S(=O)(=O)O)cc2c1", "Potency": "inactive"}
{"smiles": "Cc1cc(C(F)F)nn1CC(=O)NCc1ccc(Cl)cc1Cl", "Potency": "inconclusive: 89.1 µM [inhibitor, single point]"}
{"smiles": "Cn1c(CN2CCCC2)nc2cc(NC(=O)Nc3ccccc3)ccc21", "Potency": "inactive"}
{"smiles": "CN(CCO)c1nc(-c2cccs2)nc2ccccc12", "Potency": "inactive"}
